This is one part of the list.
Experiments:
Experiment in all cases: glycan array binding signal (z-score within array); higher = stronger binding
Settings in all cases: glycan notation: IUPAC condensed, linker removed
Fuc(a1-2)Gal = molecular target: Fuc(a1-2)Gal
In short: (§1)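 Glycan array data came from 3228 arrays in the Consortium for Functional Glycomics database, and only arrays with an available protein sequence were kept. Glycan names were put into IUPAC-condensed notation, and columns mapping to the same glycan were averaged. The binding signal is a within-array Z-score, averaged across arrays of one protein sequence run at different concentrations or buffers and across linkers. A negative Z-score can be read as non-binding.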

Fuc(a1-2)Gal(b1-3)GalNAc = molecular target: Fuc(a1-2)Gal(b1-3)GalNAc
In short: as §1

[1] = molecular target: Fuc(a1-2)Gal(b1-3)GalNAc(a1-3)[Fuc(a1-2)]Gal(b1-4)Glc
In short: as §1

[2] = molecular target: Fuc(a1-2)Gal(b1-3)GalNAc(a1-3)[Fuc(a1-2)]Gal(b1-4)GlcNAc
In short: as §1

[3] = molecular target: Fuc(a1-2)Gal(b1-3)GalNAc(b1-3)Gal
In short: as §1

[4] = molecular target: Fuc(a1-2)Gal(b1-3)GalNAc(b1-3)Gal(a1-4)Gal(b1-4)Glc
In short: as §1

[5] = molecular target: Fuc(a1-2)Gal(b1-3)GalNAc(b1-4)[Neu5Ac(a2-3)]Gal(b1-4)Glc
In short: as §1

Fuc(a1-2)Gal(b1-3)GlcNAc = molecular target: Fuc(a1-2)Gal(b1-3)GlcNAc
In short: as §1

[6] = molecular target: Fuc(a1-2)Gal(b1-3)GlcNAc(b1-2)Man(a1-3)[Fuc(a1-2)Gal(b1-3)GlcNAc(b1-2)Man(a1-6)]Man(b1-4)GlcNAc(b1-4)GlcNAc
In short: as §1

[7] = molecular target: Fuc(a1-2)Gal(b1-3)GlcNAc(b1-2)Man(a1-3)[Fuc(a1-2)Gal(b1-3)GlcNAc(b1-2)Man(a1-6)]Man(b1-4)GlcNAc(b1-4)[Fuc(a1-6)]GlcNAc
In short: as §1

[8] = molecular target: Fuc(a1-2)Gal(b1-3)GlcNAc(b1-3)Gal(b1-4)Glc
In short: as §1

[9] = molecular target: Fuc(a1-2)Gal(b1-3)GlcNAc(b1-3)GalNAc
In short: as §1

[10] = molecular target: Fuc(a1-2)Gal(b1-3)GlcNAc(b1-3)[Fuc(a1-2)Gal(b1-3)GlcNAc(b1-6)]GalNAc
In short: as §1

[11] = molecular target: Fuc(a1-2)Gal(b1-3)GlcNAc(b1-3)[Gal(b1-4)GlcNAc(b1-6)]Gal(b1-4)Glc
In short: as §1

[12] = molecular target: Fuc(a1-2)Gal(b1-3)GlcNAc(b1-3)[Neu5Ac(a2-6)Gal(b1-4)GlcNAc(b1-6)]Gal(b1-4)Glc
In short: as §1

[13] = molecular target: Fuc(a1-2)Gal(b1-3)GlcNAc6S
In short: as §1

[14] = molecular target: Fuc(a1-2)Gal(b1-3)[Fuc(a1-4)]GlcNAc
In short: as §1

[15] = molecular target: Fuc(a1-2)Gal(b1-3)[Fuc(a1-4)]GlcNAc(b1-2)Man(a1-3)[Fuc(a1-2)Gal(b1-3)[Fuc(a1-4)]GlcNAc(b1-2)Man(a1-3)]Man(b1-4)GlcNAc(b1-4)GlcNAc
In short: as §1

[16] = molecular target: Fuc(a1-2)Gal(b1-3)[Fuc(a1-4)]GlcNAc(b1-2)Man(a1-3)[Fuc(a1-2)Gal(b1-3)[Fuc(a1-4)]GlcNAc(b1-2)Man(a1-6)]Man(b1-4)GlcNAc(b1-4)[Fuc(a1-6)]GlcNAc(b1-4)[Fuc(a1-6)]GlcNAc
In short: as §1

[17] = molecular target: Fuc(a1-2)Gal(b1-3)[Fuc(a1-4)]GlcNAc(b1-3)[Fuc(a1-3)[Gal(b1-4)]GlcNAc(b1-6)]Gal(b1-4)Glc
In short: as §1

[18] = molecular target: Fuc(a1-2)Gal(b1-3)[Fuc(a1-4)]GlcNAc(b1-3)[Gal(b1-4)GlcNAc(b1-6)]Gal(b1-4)Glc
In short: as §1

Fuc(a1-2)Gal(b1-4)Glc = molecular target: Fuc(a1-2)Gal(b1-4)Glc
In short: as §1

Fuc(a1-2)Gal(b1-4)Glc6S = molecular target: Fuc(a1-2)Gal(b1-4)Glc6S
In short: as §1

Fuc(a1-2)Gal(b1-4)GlcNAc = molecular target: Fuc(a1-2)Gal(b1-4)GlcNAc
In short: as §1

[19] = molecular target: Fuc(a1-2)Gal(b1-4)GlcNAc(b1-2)Man
In short: as §1

[20] = molecular target: Fuc(a1-2)Gal(b1-4)GlcNAc(b1-2)Man(a1-3)[Fuc(a1-2)Gal(b1-4)GlcNAc(b1-2)Man(a1-6)]Man(b1-4)GlcNAc(b1-4)GlcNAc
In short: as §1

[21] = molecular target: Fuc(a1-2)Gal(b1-4)GlcNAc(b1-2)Man(a1-3)[Fuc(a1-2)Gal(b1-4)GlcNAc(b1-2)Man(a1-6)]Man(b1-4)GlcNAc(b1-4)[Fuc(a1-6)]GlcNAc
In short: as §1

[22] = molecular target: Fuc(a1-2)Gal(b1-4)GlcNAc(b1-2)[Fuc(a1-2)Gal(b1-4)GlcNAc(b1-4)]Man(a1-3)[Fuc(a1-2)Gal(b1-4)GlcNAc(b1-2)Man(a1-6)]Man(b1-4)GlcNAc(b1-4)GlcNAc
In short: as §1

[23] = molecular target: Fuc(a1-2)Gal(b1-4)GlcNAc(b1-3)Gal(b1-4)GlcNAc
In short: as §1

[24] = molecular target: Fuc(a1-2)Gal(b1-4)GlcNAc(b1-3)Gal(b1-4)GlcNAc(b1-2)Man(a1-3)[Fuc(a1-2)Gal(b1-4)GlcNAc(b1-3)Gal(b1-4)GlcNAc(b1-2)Man(a1-6)]Man(b1-4)GlcNAc(b1-4)GlcNAc
In short: as §1

B1: SBD-G4S3-SBD (protein)
chain: MASIPSSASVQLDSYNYDGSTFSGKIYVKNIAYSKKVTVVYADGSDNWNNNGNIIAASFSGPISGSNYEYWTFSASVKGIKEFYIKYEVSGKTYYDNNNSANYQVSTGGGGSGGGGSGGGGSEFASIPSSASVQLDSYNYDGSTFSGKIYVKNIAYSKKVTVVYADGSDNWNNNGNIIAASFSGPISGSNYEYWTFSASVKGIKEFYIKYEVSGKTYYDNNNSANYQVST
glycan array binding signal (z-score) (Fuc(a1-2)Gal): -0.343 | glycan array binding signal (z-score) (Fuc(a1-2)Gal(b1-3)GalNAc): -0.42 | glycan array binding signal (z-score) [1]: -0.338 | glycan array binding signal (z-score) [2]: -0.396 | glycan array binding signal (z-score) [3]: 0.428 | glycan array binding signal (z-score) [4]: -0.316 | glycan array binding signal (z-score) [5]: -0.402 | glycan array binding signal (z-score) (Fuc(a1-2)Gal(b1-3)GlcNAc): -0.343 | glycan array binding signal (z-score) [6]: 2.65 | glycan array binding signal (z-score) [7]: -0.316 | glycan array binding signal (z-score) [8]: -0.249 | glycan array binding signal (z-score) [9]: -0.4 | glycan array binding signal (z-score) [10]: 1.91 | glycan array binding signal (z-score) [11]: -0.417 | glycan array binding signal (z-score) [12]: -0.352 | glycan array binding signal (z-score) [13]: -0.372 | glycan array binding signal (z-score) [14]: -0.402 | glycan array binding signal (z-score) [15]: 1.36 | glycan array binding signal (z-score) [16]: -0.299 | glycan array binding signal (z-score) [17]: -0.29 | glycan array binding signal (z-score) [18]: -0.283 | glycan array binding signal (z-score) (Fuc(a1-2)Gal(b1-4)Glc): -0.372 | glycan array binding signal (z-score) (Fuc(a1-2)Gal(b1-4)Glc6S): -0.342 | glycan array binding signal (z-score) (Fuc(a1-2)Gal(b1-4)GlcNAc): -0.421 | glycan array binding signal (z-score) [19]: -0.306 | glycan array binding signal (z-score) [20]: 2.42 | glycan array binding signal (z-score) [21]: -0.276 | glycan array binding signal (z-score) [22]: 0.803 | glycan array binding signal (z-score) [23]: -0.435 | glycan array binding signal (z-score) [24]: -0.362

From the supplement of paper PMC8728848
